# Source: the supplement of paper PMC10126150
# Values marked as one replicate rest on one cluster of the flow cell; about a third of the high ones do not repeat.
# Tested on: ATP
# Test: switch fluorescence ratio, 500 uM ATP over buffer (Cy3 cluster intensity, sum of 5 cycles each) (fold (ratio)); higher = stronger signal-on switching upon ATP binding; sequences stand for … in TCGTCGGCAGCGTCAGATGTGTATAAGAGACAGTTTTTTTTTTTTTTTTTTTTTTTTT…TC
# Settings: aptamer strand: ATP DNA aptamer (quencher-CACCTGGGGGAGTATTGCGGAGGAAGG + anchor), 100 nM annealed; ATP concentration: 500 uM; one replicate
# Summary of the method: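 Switching-strand clusters labelled with Cy3 on a modified Illumina MiSeq flow-cell were annealed to 100 nM quencher-labelled ATP aptamer, imaged in selection buffer, and re-imaged after 15 min with 500 uM ATP at 22 °C. This was done over five cycles with NaOH stripping and re-annealing in between. The fluorescence ratio is summed target-cycle over summed buffer-cycle Cy3 intensity per cluster, averaged per switch-domain sequence, excluding clusters outside 100-1000 RFU.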
# 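Also: ATP exposure 15 min at 22 °C before imaging.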
row,Sequence,switch fluorescence ratio
1,CGCCGGCATC,1.61
2,CGCCGGCGTC,0.979
3,CGCCGGGAAC,1.7
4,CGCCGGGATG,1.08
5,CGCCGTTCAA,1.07
6,CGCCTAAAAA,0.97
7,CGCCTAGCCT,1.08
8,CGCCTAGGAA,0.977
9,CGCCTAGTA,0.965
10,CGCCTCCTCT,1.2
11,CGCGAAGCAC,1.03
12,CGCGACGCTA,3.49
13,CGCGACTTAT,1.1
14,CGCGAGGTTA,0.986
15,CGCGAGTGAG,1.07
16,CGCGAGTTAT,1.03
17,CGCGAGTTTG,1
18,CGCGATCTTG,1.13
19,CGCGCAACGA,1.06
20,CGCGCAACGG,1.23
21,CGCGCCCATT,1.04
22,CGCGCGGGAA,1
23,CGCGCGTAGG,1.06
24,CGCGCTTTGA,0.996
25,CGCGGAATCA,1.04
26,CGCGGACCAG,1

row,Sequence,switch fluorescence ratio
1,CGCGGAGGAC,1.15
2,CGCGGAGGTA,1.04
3,CGCGGCACTA,1.55
4,CGCGGCCAGG,1.41
5,CGCGGCCTAA,1.06
6,CGCGGGCAAA,1.07
7,CGCGGGCTAG,0.967
8,CGCGGGGG,1.03
9,CGCGGTGATT,1
10,CGCGGTTGGG,0.983
11,CGCGTATCA,1.07
12,CGCGTATGGT,1
13,CGCGTCTGAG,1.01
14,CGCGTCTTCC,1.07
15,CGCGTGCTCA,1.09
16,CGCGTGTAGC,1.05
17,CGCTAAATGC,4.52
18,CGCTAATTGC,2.14
19,CGCTACTCGG,1.64
20,CGCTAGAAGG,1.01
21,CGCTAGACTT,1.46
22,CGCTAGATAT,1.05
23,CGCTATAACA,1.16
24,CGCTATAGGC,1.04
25,CGCTATATC,4.07
26,CGCTATGTTC,1.34

row,Sequence,switch fluorescence ratio
1,CGCTCAACAA,1.26
2,CGCTCAGCGG,1.02
3,CGCTCATAAT,1.03
4,CGCTCATCGC,1.06
5,CGCTCGAGAG,1.01
6,CGCTCTGGT,0.982
7,CGCTGATTGC,1.25
8,CGCTGCGCGG,1
9,CGCTGCGCTA,1.46
10,CGCTGGAGGT,0.976
11,CGCTGGTGCA,1.05
12,CGCTGTAAC,1.58
13,CGCTGTAGGG,1.01
14,CGCTGTATTT,0.997
15,CGCTGTCCT,1.69
16,CGCTTAAGAT,1.02
17,CGCTTATGAA,1.02
18,CGCTTATTAT,1.04
19,CGCTTCAGGG,1.07
20,CGCTTCCCAA,1.54
21,CGCTTCTGCG,0.885
22,CGCTTGAAAG,0.989
23,CGCTTTATAT,1.11
24,CGGAAAGGTC,1.01
25,CGGAACCAAT,1.14
26,CGGAACGTAA,1.2

row,Sequence,switch fluorescence ratio
1,CGGAAGACAC,1.1
2,CGGAAGTGAC,1.26
3,CGGAATCCTG,1.03
4,CGGACAACGG,1.07
5,CGGACCCTAA,1.08
6,CGGACGGAGT,0.993
7,CGGACTAGTG,0.973
8,CGGACTATGT,0.999
9,CGGACTGGCT,1.01
10,CGGAGACCAA,1.18
11,CGGAGCAGCT,1.91
12,CGGAGCCGGA,1.07
13,CGGAGTAGAG,0.979
14,CGGAGTATGC,1.26
15,CGGAGTGGAG,1.01
16,CGGAGTTCCG,0.945
17,CGGAGTTGTC,1.01
18,CGGATAACGG,0.947
19,CGGATACATA,1.05
20,CGGATAGCTT,1.02
21,CGGATAGTCG,1.16
22,CGGATAGTTT,0.963
23,CGGATCTATG,0.947
24,CGGATGCCGG,1.02
25,CGGATTTCGA,1.03
26,CGGATTTTT,1.02

row,Sequence,switch fluorescence ratio
1,CGGCAAGTTA,1.07
2,CGGCAATAAT,5.49
3,CGGCACGGCC,0.986
4,CGGCACGGGC,0.983
5,CGGCAGATGT,0.997
6,CGGCAGCGCT,1.02
7,CGGCAGCGG,1.07
8,CGGCAGCTTC,1.33
9,CGGCAGGGCA,0.96
10,CGGCATCAGC,0.995
11,CGGCATCTAG,1.01
12,CGGCATTGGA,0.964
13,CGGCCCAGTG,2.7
14,CGGCCGAGCT,1.02
15,CGGCGAGGCT,1.04
16,CGGCGCTACG,1.1
17,CGGCGCTCG,1
18,CGGCGCTGTA,0.978
19,CGGCGCTTGC,1.68
20,CGGCGGCCCA,0.988
21,CGGCGGTATA,0.951
22,CGGCGTCAG,0.996
23,CGGCGTGAGA,1.16
24,CGGCGTGGTG,0.979
25,CGGCTACCTC,1.14
26,CGGCTATTTA,0.945

row,Sequence,switch fluorescence ratio
1,CGGCTCTGCT,1.01
2,CGGCTGGTTA,1.01
3,CGGCTTCTAC,1.07
4,CGGGAAGCGG,1.01
5,CGGGAATCCG,0.965
6,CGGGAATCGC,0.987
7,CGGGAGACTT,1.01
8,CGGGAGTTTC,1.01
9,CGGGATTAA,0.975
10,CGGGATTACT,1.11
11,CGGGCATATC,2.28
12,CGGGCCCACT,1.01
13,CGGGCCTCTG,1.06
14,CGGGCGACGG,1
15,CGGGCGAGCT,0.965
16,CGGGCGATAT,1.16
17,CGGGCGGA,1.04
18,CGGGCGTGAA,1.03
19,CGGGCTACGT,0.97
20,CGGGCTCGCA,0.989
21,CGGGCTGAAC,1.01
22,CGGGGAAAAT,0.997
23,CGGGGACCGT,1.03
